Results reported in the supplement of paper PMC3334620.
The full ranking holds about 33,000 sequences; the median of “E-score (-0.5 to 0.5)” is about -0.043, and the highest 2% start at about 0.37. This is one part of the list.

These sequences were tested against T1, Upc2 (UniProt Q12151) (assay: PBM E-score (8-mer binding enrichment) (E-score (-0.5 to 0.5)); higher = stronger / more preferred TF binding; most listed sequences are background and not binding sites). Details: protein concentration: 200 nM; construct: GST-full length.
T1 sequence: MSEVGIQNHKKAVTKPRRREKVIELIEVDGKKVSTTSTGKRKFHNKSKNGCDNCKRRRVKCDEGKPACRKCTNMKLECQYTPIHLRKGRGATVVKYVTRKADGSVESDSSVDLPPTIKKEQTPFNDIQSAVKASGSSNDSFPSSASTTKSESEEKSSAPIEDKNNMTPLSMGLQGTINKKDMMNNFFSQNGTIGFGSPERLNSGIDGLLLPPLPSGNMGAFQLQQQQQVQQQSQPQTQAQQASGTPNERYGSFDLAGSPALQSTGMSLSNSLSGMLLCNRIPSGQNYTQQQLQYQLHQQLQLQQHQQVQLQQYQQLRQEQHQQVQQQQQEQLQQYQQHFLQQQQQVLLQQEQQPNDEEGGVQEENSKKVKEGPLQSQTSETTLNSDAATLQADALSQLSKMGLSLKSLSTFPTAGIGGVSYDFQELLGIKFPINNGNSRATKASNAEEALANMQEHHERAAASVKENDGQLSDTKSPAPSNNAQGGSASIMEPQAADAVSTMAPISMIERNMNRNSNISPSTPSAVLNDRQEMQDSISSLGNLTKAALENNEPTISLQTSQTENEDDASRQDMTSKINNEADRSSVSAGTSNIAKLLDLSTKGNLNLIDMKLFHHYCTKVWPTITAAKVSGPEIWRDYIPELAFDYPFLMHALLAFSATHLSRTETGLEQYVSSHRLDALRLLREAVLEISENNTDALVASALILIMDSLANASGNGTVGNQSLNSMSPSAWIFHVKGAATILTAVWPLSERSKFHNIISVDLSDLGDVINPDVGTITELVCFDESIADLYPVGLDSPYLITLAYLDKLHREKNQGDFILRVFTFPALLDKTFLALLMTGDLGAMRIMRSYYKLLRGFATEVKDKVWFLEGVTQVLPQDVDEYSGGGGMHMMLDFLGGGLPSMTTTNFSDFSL
Outline: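 Yeast transcription factors, full-length or as DNA-binding domains, were expressed with a GST tag using PURExpress in vitro transcription/translation. At about 100-200 nM they were applied to universal all-10-mer Agilent arrays, double-stranded by primer extension on fresh or once-stripped slides. Fluorescent anti-GST detected bound protein, and masliner normalised the scans. E-scores for ungapped eight-base words, pooled with reverse complements, came from the Universal PBM Analysis Suite.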

Sequence	PBM E-score
GCTAGATA	-0.0359
GCAGAAAC	0.103
AGATCGCG	0.0663
AAGTTACG	0.326
CGAGAACC	0.189
CCCCTAGG	-0.322
GAGAGCAC	0.0218
GACAGTAC	0.0726
GTATGGTA	0.226
TATAGTCA	0.176
CCAGACTC	-0.0319
AAGCTGAG	-0.268
CTAAGAGA	-0.0721
TCAAAGGA	-0.248
CGCAATGC	-0.132
ACCACAGT	-0.0661
ATGTTATG	-0.0281
GAATCTAC	0.00921
CTTAGTTC	0.133
ACCGTTCT	0.0432
AAGACGGC	-0.199
GAGTGCAA	0.145
ATTGTAAC	-0.0177
CCAGGACG	-0.153
GCAGGTCC	-0.202

Sequence	PBM E-score
CCACGAAC	0.155
ACATGACG	-0.0379
GTAGATAC	0.0397
CACCACTA	0.126
CAGGACCC	-0.349
CGCAGTGA	0.0212
ACAGCATC	-0.0918
AATGAGGA	-0.135
CTTGCAAG	0.0207
ATAGCGTA	0.227
ATATGTTA	-0.0719
TACCCTGA	-0.0732
CTGACGAC	-0.0518
ATGGGAAG	-0.251
AACTTGTG	0.0183
AGAATCTA	-0.0406
CGTCCAAA	0.0867
AAACGATA	0.459
ATTTTAGG	-0.0263
ATTAATTG	-0.0275
ACGTTCCC	0.0935
CCAATAGC	-0.22
CTGGACAG	-0.163
CACACCTC	-0.19
AGCAAGAC	-0.151

Sequence	PBM E-score
CGGAGGAC	-0.238
AACGGGTA	0.261
AAAAGTAG	-0.0874
CACCGACA	-0.0632
AGAGTGAG	-0.0472
ACTTGTCA	-0.235
AGACGCGA	0.054
CTTGCGTA	0.218
ACATCCCG	-0.0469
ACACGCCG	0.107
GTGCCCGA	-0.238
AAGTACTG	0.0415
AAACACAA	-0.0487
AGTGCAAT	-0.0802
CCTCGCGC	0.089
CTCATAAA	-0.0402
ATACCTGA	-0.0527
CCTAGACA	-0.257
CGATTTGC	-0.0413
ATCTAGAG	-0.135
ATCTATGA	-0.0565
AGGCCCCG	-0.192
CAGGTGAC	-0.236
CGGTCCTC	-0.0244
CGAAACTA	0.197

Sequence	PBM E-score
GGTCATGA	0.0317
ATGTGTAG	0.0504
CTCGTGTA	0.342
GCGATCGC	0.204
GGAGGTAA	-0.0831
AGAGCTCA	-0.346
ACCTCATA	-0.125
CGCTGTGA	-0.0925
AGCCGGTA	-0.0794
CCCCCCAG	-0.318
GGCTTGAC	-0.318
ACAATGAA	-0.0352
CGCGACGC	0.155
TCAAGCGA	0.196
CCGGCGCA	-0.0021
CAAGACAC	-0.113
CGTACTCA	0.201
GGGACAGA	-0.0767
GATTACAA	0.0744
ATTGGTCG	-0.00448
AATGCTCT	-0.106
CCCTCCTA	-0.122
GCAAATAC	0.0681
GACTGAGC	-0.26
CATCATAC	0.14

Sequence	PBM E-score
ATTATCGA	-0.101
GGGGTCGA	-0.257
ATATCGAG	-0.124
ACGAAGCA	0.344
AAGCATAG	0.0417
ACAGTTGG	-0.0833
GATGGAAC	0.0656
GCCTAGTA	-0.0743
AGAGTTAC	-0.0211
CATTATAA	0.249
AATGTTTG	-0.00303
CGTATGCA	0.377
CAGCCAGA	-0.111
GAAAGCTC	-0.15
AAAAGAGT	-0.0578
AGAGAGGC	-0.355
CAATATTG	-0.0814
AGATTCAA	-0.0749
AATTGTCA	-0.0435
CGGGGCCC	0.0837
TAGACAGA	-0.068
ACCGATTG	0.0763
AACATGCT	-0.0382
GTAACGAA	0.325
CCCATACG	0.407

Sequence	PBM E-score
CCGCGGTA	0.108
CAACGAGA	0.314
GCTCTTAC	0.149
TGCTCAAA	0.0248
GAGGGTCA	-0.0962
GTACATGA	0.226
CTGGCATA	-0.185
TCTAGTCA	-0.034
CACCACGC	-0.221
CAACGAGG	0.278
CATAAGCC	-0.116
AGAACGCT	-0.08
CCAATACG	0.326
GACACGGA	0.0341
AAGAAATT	0.0426
GACCTACA	-0.105
AAGCGTGG	-0.0633
ACTTCAGC	-0.178
GGATTACC	-0.126
TGTGACAA	-0.105
GATAGGAA	-0.0663
TTCCAGAA	0.0881
CTTACCCA	-0.112
CTGCAATA	0.04
GAGATACA	0.00195

Sequence	PBM E-score
AGGATCAG	-0.198
AAAACGGA	0.089
CGTATCAC	0.364
CATTGTAC	0.288
ACAGCAAC	0.0613
GTTTCCTA	-0.0102
ATCCTAAG	-0.0385
CAGCGGGG	-0.165
GATACAAA	0.106
AAAGACGT	0.0596
CATGGTAG	-0.249
GCTAGGAC	-0.23
TCCCTCAA	-0.193
ACGTGTCG	0.12
GATTCGGA	0.11
ATGGTCGC	0.00642
CATTGGCC	-0.225
GGATATAA	-0.0447
CCTACCCA	-0.122
CATCTAGA	0.0683
TGTTAACA	-0.171
ACTTTTAG	0.0244
